# Data reported in PubChem BioAssay AID624296 (National Center for Advancing Translational Sciences (NCATS), 2012).
# Out of some 350,000 compounds screened, about 9,900 (2.8%) were called active. The inconclusive results got no clear call from the source; some entries with a clear call stand among them for comparison. The call rests on the fitted dose curve; in most records, active means well fitted activation curve with a large enough effect; inconclusive means small, poorly fitted or top-dose-only effect; inactive means no such curve, though single readings can be large or run the other way. Potencies of inconclusive entries are left out as doubtful fits.
# Assay: A quantitative high throughput screen for small molecules that induce DNA re-replication in MCF 10a normal breast cells. Further: nearly all actives have a fitted effect of over 50% in size.
# Conditions: MCF 10A DNA re-replication, Hoechst nuclear intensity, 48 h; series mostly up to 46.1 µM
# Potency means the concentration at half of the fitted maximal effect; tags describe the fitted curve by direction and shape.
row,SMILES,Potency
1,O=c1oc2cc(OCc3ccc(F)cc3F)ccc2cc1-c1ccc2ccccc2n1,"inconclusive [activator, single point]"
2,CCCS(=O)(=O)NCCc1cc2ccc(C)cc2[nH]c1=O,"inconclusive [activator, single point]"
3,Cc1cc(C)cc(OCC(=O)Nc2ccccc2C(=O)NCc2ccco2)c1,"inconclusive [activator, partial curve, poor fit]"
4,N#CCCn1cc(/C=N/O)c(-c2ccc(-c3ccccc3)cc2)n1,active: 13 µM
5,CCOc1cccc(-c2nnc3sc(C4CCCCC4)nn23)c1,inactive
6,COc1ccccc1OCCCn1c(=O)oc2ccccc21,inactive
7,Cc1ccc(Cn2c(CCNc3nc(-c4ccc(C)cc4)cs3)nc3cc(C(=O)NCCCO)ccc32)cc1,"inconclusive [activator, partial curve, poor fit]"
8,C#Cc1ccc([C@@H]2C=C(C(=O)N3CCN(Cc4ccc5c(c4)OCO5)CC3)O[C@H](OCCCCO)C2)cc1,"inconclusive [activator, partial curve, poor fit]"
9,COc1ccc(CN(CCC(c2ccc(F)cc2)C2CCOC(C)(C)C2)C(=O)c2ccco2)cc1 (stereo unspecified),active: 23.1 µM
10,CCOC(=O)c1sc(Nc2nc3c(OC)cccc3s2)cc1C,active: 23.1 µM
11,Cc1ccc(CN2C(=O)COc3cc(NS(C)(=O)=O)ccc32)cc1,inactive
12,Cc1cc(N2CCN(C(=O)c3ccco3)CC2)n2ncc(-c3ccccc3)c2n1,"inconclusive [activator, full curve, poor fit]"
13,COc1ccc(-c2cc(C(F)(F)F)nc(S(=O)(=O)CCC(=O)N3CCOCC3)n2)cc1,active: 8.2 µM
14,COc1ccc2[nH]c3c(NCc4ccco4)ncnc3c2c1,"inconclusive [activator, single point]"
15,CCOC(=O)C1CCCN(c2cc(NCCCO)c([N+](=O)[O-])c3nonc23)C1 (stereo unspecified),"inconclusive [activator, single point]"
16,Cc1ccc(-c2nc3ccccc3s2)cc1NC(=O)c1cc(-n2cnnc2)ccc1Cl,"inconclusive [activator, single point]"
17,CCOc1ccccc1C(=O)Nc1ccc(C(=O)c2ccccc2)cc1,"inconclusive [activator, single point]"
18,COc1cc(O)c(C(CCN2CCCC(C)C2)c2cc(OC)c(OC)c(OC)c2)c(OC)c1 (stereo unspecified),"inconclusive [activator, single point]"
19,CCc1ccc(NC(=O)c2c(Cl)nc(C)c(Cl)c2C)cc1,"inconclusive [activator, single point]"
20,N#CC1=C(SCC(=O)Nc2cccc3cccnc23)NC(=O)C(C#N)C12CCCCC2 (stereo unspecified),"inconclusive [activator, single point]"
21,CC(C)CNC(=S)N(CCO)Cc1cc2cc3c(cc2[nH]c1=O)OCO3,inactive
22,CCSC1=N/C(=C\c2ccc(OC)cc2)C(=O)N1,inactive

row,SMILES,Potency
1,O=C(COc1ccccc1)Nc1ccccc1F,"inconclusive [activator, single point]"
2,CC1(C)Cc2c(sc(NC(=O)COc3cccc4ccccc34)c2C#N)C(C)(C)N1,active: 16.4 µM
3,CCc1nnc(NC(=O)c2ccc(Br)c(S(=O)(=O)N3CCOCC3)c2)s1,inactive
4,Cc1ccc(-n2c(O)c(/C=N/NC(=O)C3COc4ccccc4O3)c3ccccc3c2=O)cc1 (stereo unspecified),"inconclusive [activator, single point]"
5,CC(C)(C)CC(=O)Nc1ccccc1N1CCN(c2ccc(F)cc2)CC1,"inconclusive [activator, partial curve, poor fit]"
6,CCOc1cc2[nH]c(=O)n(Cc3ccc(C(=O)NCCCN4CCC(C)CC4)cc3)c(=O)c2cc1OCC,"inconclusive [activator, single point]"
7,Cc1cccc(N=Nc2c(C)c(C#N)c(O)[nH]c2=O)c1,inactive
8,C=CCN(CC=C)C(=S)NC(=O)/C=C/c1ccc(OC)cc1,inactive
9,CC(=O)NC(c1ccccc1)c1c(O)ccc2ccccc12 (stereo unspecified),inactive
10,Cc1cc(C)c(C(=O)NC2CC(C)(C)Cc3c2cnn3-c2cccc(F)c2)[nH]1 (stereo unspecified),"inconclusive [activator, partial curve, poor fit]"
11,Cc1ccc2c(Cl)cc(Cl)c(OCC(=O)Nc3cccc(S(N)(=O)=O)c3)c2n1,"inconclusive [activator, single point]"
12,Cc1cccc(NC(=O)c2cc(=O)n(Cc3ccccc3)c(=O)[nH]2)c1,"inconclusive [activator, single point]"
13,Cc1ccc(OCCN(C)C(=O)c2cc(COc3ccc(F)cc3F)on2)cc1,inactive
14,COc1cccc(-c2cc(C(=O)N3CC4(C)CC3CC(C)(C)C4)no2)c1 (stereo unspecified),"inconclusive [activator, full curve]"
15,CCCCc1c(O)nc(SC2CC(=O)N(c3ccc(C(=O)OCC)cc3)C2=O)[nH]c1=O (stereo unspecified),"inconclusive [activator, partial curve, poor fit]"
16,O=C(NCc1cccs1)C(=O)NCC1OCCCN1S(=O)(=O)c1cc(F)ccc1F (stereo unspecified),inactive
17,Cc1ccc(Cl)cc1N1C(=O)CC(C)(C)CC1=O,"inconclusive [activator, single point]"
18,c1cncc(C(c2nnnn2C2CCCCC2)N2CCN3CCCC3C2)c1 (stereo unspecified),"inconclusive [activator, partial curve, poor fit]"
19,COc1ccc2nc(Nc3nc(C)c(C(C)=O)s3)sc2c1,"inconclusive [activator, single point]"
20,CN(c1cccc(Cl)c1)S(=O)(=O)c1cccc(C(=O)NC2=NCCS2)c1,"inconclusive [activator, single point]"
21,COc1cccc(CNC(=O)C2CCN(Cc3cnn(-c4ccccc4)c3-n3cccc3)CC2)c1,"inconclusive [activator, partial curve, poor fit]"
22,Cc1ccc(C)c(Cn2c(=O)n(-c3ccc(CC(=O)NCc4ccco4)cc3)c(=O)c3sccc32)c1,inactive

row,SMILES,Potency
1,CC(C)=CCOc1ccc(/C=C/C(=O)c2ccc(OCC=C(C)C)cc2OCC(=O)O)cc1,active: 11.9 µM
2,CCOC(=O)C(C)Sc1nc2c(cnn2-c2ccc(F)cc2)c(=O)[nH]1 (stereo unspecified),"inconclusive [activator, single point]"
3,Cc1ccc(C(=O)NC(=S)Nc2ccc(N3CCN(C(=O)c4ccco4)CC3)cc2)cc1,"inconclusive [activator, full curve, poor fit]"
4,O=C(N/N=C/c1ccc(O)c([N+](=O)[O-])c1)c1ccncc1,inactive
5,O=[N+]([O-])c1cccc(-n2cccc2/C=N/Nc2nc(N3CCCCC3)nc(N3CCCCC3)n2)c1,inactive
6,Cc1cc(C)c2nc(SCC(=O)Nc3cc(C)on3)c(C)cc2c1,"inconclusive [activator, partial curve, poor fit]"
7,CC(C)Cc1nc2oc3c(=O)[nH]cnc3c2c2c1CCC2,inactive
8,COc1cc(OC)cc(C(=O)N[C@H](C(=O)Nc2nc3ccccc3[nH]2)C(C)C)c1,"inconclusive [activator, full curve, poor fit]"
9,COc1cccc(/C=N/n2c(-c3cc(C)[nH]n3)n[nH]c2=S)c1OC,inactive
10,O=C(Nc1ccccc1[N+](=O)[O-])C1=C(O)CCn2c1nc1ccccc12,"inconclusive [activator, full curve, poor fit]"
11,NC(=O)c1sc2nc(N3CCOCC3)c3c(c2c1N)CCCC3,"inconclusive [activator, single point]"
12,COc1ccc2nc(Cl)c(/C=N/Nc3ccccn3)cc2c1,"inconclusive [activator, partial curve, poor fit]"
13,COc1ccc(-c2cc(-c3nnc(COC(=O)CC4CC5CCC4C5)o3)c3ccccc3n2)cc1OC (stereo unspecified),"inconclusive [activator, full curve, poor fit]"
14,O=C(/C=C/c1ccccc1)NC(=S)Nc1ccc(CN2CCOCC2)cc1,"inconclusive [activator, single point]"
15,N/C(=N\c1nc2c(c(=O)[nH]1)CCC2)Nc1cccc(Cl)c1,"inconclusive [activator, partial curve, poor fit]"
16,CC(=O)N1N=C(c2ccccc2O)OC1(C)CC(=O)Nc1ccccc1 (stereo unspecified),inactive
17,CCOCCCNC(=O)c1cc(Sc2ccc(F)cc2)nc2ccccc12,"inconclusive [activator, single point]"
18,Oc1c(C(Nc2cccc(C(F)(F)F)c2)c2cccnc2)ccc2cccnc12 (stereo unspecified),"inconclusive [activator, single point]"
19,COc1cccc(N2CCN(CC(=O)C34CC5CC(CC(C5)C3)C4)CC2)c1,"inconclusive [activator, partial curve, poor fit]"
20,CCC1CN(C(=O)NCc2cccc(OC)c2)c2ccccc2O1 (stereo unspecified),"inconclusive [activator, partial curve, poor fit]"
21,O=C(COc1ccccc1F)NCc1ccc(-n2cccc2)cc1,"inconclusive [activator, single point]"
22,COC(=O)c1ccccc1NC(=O)Oc1ccc(F)cc1,"inconclusive [activator, single point]"
